# Measurements published in PubChem BioAssay (NCI).
# Some compounds were tested as several samples or in several runs, with calls that do not always agree.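 The test compound was applied at a single concentration to cells in 96-well plates for 48 hours, and percent growth was recorded.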 The source holds more than one record for some entries. This is not the full list of results. There may be further records. For part of these data: This drug was run again and again over the years, at its own concentration, as given; each value is one run. Additions like (4×) stand for listed records that agree. Entries with a single value are a further part of the results. Active and inactive are the calls of the source. The calls were made as follows: active = growth percent below 10; inactive = the rest.
# System: ACHN renal
# Assay: NCI-60 one-dose screen, 48 h (100 = growth as untreated, 0 = no growth, -100 = all killed)
# Conditions: 0.25 µM
smiles,measurement,setting,value
COc1cccc2c1C(=O)c1c(O)c3c(c(O)c1C2=O)C[C@@](O)(C(=O)CO)C[C@@H]3OC1CC(N)C(O)C(C)O1 (stereo not given in full),growth,runs of 2006,inactive: 36.7%
same,growth,runs of 2007,"inactive: 47.9, 59, 52.9, 46.8, 45.5 (2×), 29.1, 35.5, 32.4, 39.9, 41.5, 44.4, 49.3, 48.6, 62.5, 26.9, 29.6 (2×), 38, 23.7, 28.3, 30.4, 43.8, 43, 41.8, 33.8, 51.4, 55.2, 56.1, 51.1, 46.7, 24.4, 51, 28.8, 29.5, 41.4, 30.2, 46.1, 34.5, 31.9, 43.4, 48%"
same,growth,runs of 2008,"inactive: 37.8, 42.7, 47.9 (2×), 25.1, 33.6 (3×), 30.4, 32.4, 41, 39.9, 41.4 (2×), 47.8, 30.3, 39.7, 38.9, 34.5 (2×), 42.8, 35.7 (2×), 29.8, 32.1, 32.6, 21.8, 22.7, 33.9, 96.3, 31.2, 35, 30.7, 26.9, 51.4, 34.7, 41.7, 40.7, 30.1, 36.9, 35.5, 52.7, 49.7, 63.6, 60.9, 28.8, 33.5, 40.2, 25.5, 26.6, 33.4, 27.2, 44.3, 40.5, 47.7%"
same,growth,runs of 2009,"inactive: 33.5, 46.9, 43.1 (2×), 23.3, 31.8, 34.9, 31.6 (2×), 34.2, 33.6, 37.3 (2×), 29.8, 31.1, 44.4, 28.9, 26.7 (2×), 36.8, 39.2, 38.1 (2×), 35.2, 22.4, 24.9, 32.7, 30.2, 29.5 (2×), 26.1, 30.5, 23.7, 30.4, 33.9, 41.8, 36.3, 32.9, 39.5, 34.5, 29.7, 28.6, 32.8, 28.3, 41.2, 32.6, 33.4, 45.7, 47, 21.6, 13.5, 11.6, 19.2, 27.1, 30.7, 25.9, 40.5, 23.9, 21.4, 24.2, 39, 40.6, 28, 24.4, 33.1%"
same,growth,runs of 2010,"inactive: 37.3 (2×), 30.4, 29.5, 20.3, 25.6, 31.6, 28.4 (2×), 21.1, 30.9, 29.8 (2×), 27.1, 30.3, 21.2, 23.8, 20.8 (2×), 24.7, 28.8 (2×), 37, 36.3, 41.9, 19.2, 25.5 (2×), 12.6, 16.5, 22.4, 25.1, 25.9, 16.2, 23.3, 30.2, 32.6, 32.7, 40, 23.1, 30.1, 24.3, 27.5, 27.2, 26.7, 39.3, 48.6, 38.8, 42.4% and active: 9.71%, 1.21%"
same,growth,runs of 2011,"inactive: 37.7, 37, 30.9 (2×), 29.4 (2×), 31.9, 24.9, 32.8, 29.9 (2×), 36.4, 33.1, 37.6, 35.2, 38.8, 36.3, 41.2, 43.6, 38 (2×), 44.2, 28.2, 30.2, 31.2 (2×), 26.7, 43.4, 39.9, 28, 34 (2×), 33.3, 31.7 (2×), 32.6 (2×), 33, 41.1, 32.5, 22.1, 23.1, 21.7, 19.5, 22.4, 29.2, 32.2, 26.2, 24.3, 33.5, 29.6 (2×), 31, 32.9, 27.7, 30.1%"
same,growth,runs of 2012,"inactive: 28.6, 23.4, 25.7, 26.5, 32.6, 31.5 (2×), 35.1, 31.6, 24.2, 22.6 (2×), 22.7, 18.5 (2×), 27.1 (2×), 27.2 (2×), 28.5, 18.2, 21.6, 27.7, 26.7, 26.9 (2×), 26, 28.1, 15.5, 28.8, 17.3, 25.1, 35.6, 30.3, 43.3, 36.3, 39.7, 42.1, 50.6, 51.8, 49.7 (2×), 49.6, 48.1, 43.1, 52.4, 46.1, 42.5, 36.9, 31.9 (2×), 25.3, 29.2, 29.5, 27.5, 28.3, 37.9, 44.4, 38, 48, 39%"
same,growth,runs of 2013,"inactive: 26.7, 31.9 (2×), 48.3, 44.4, 32.6 (3×), 35, 29.8, 29.3, 36.7, 42.6, 30.5, 34.9 (2×), 37.8, 34.4, 37.4, 43.3 (2×), 38.8, 37, 39.4, 40.7, 44.2, 40.3, 38.1 (2×), 41.7, 45.4, 38, 36.8 (2×), 40.4, 39, 41.4, 30.4, 28.9, 32.1, 36.4, 45.1, 40.9, 40.5, 37.6, 36.2, 38.6, 44.7, 45.5, 40.6, 49.8, 33.6, 30.7 (2×), 40, 32.4, 33.5, 11.8, 18.9, 11.4, 13.8, 25.1, 34.7, 32.2, 23.4, 24.7% and active: 7.38%"
same,growth,runs of 2014,"inactive: 30.3, 36.8 (2×), 21.7, 27.4, 23.7 (3×), 27.5, 24 (3×), 24.7 (2×), 25.9, 33, 33.8, 37.7, 42.8 (2×), 38.6 (2×), 50.9, 44.6, 41.9, 45.6, 46.4, 34, 38 (2×), 24.2, 24.6, 19.5, 17.1, 20.6, 22.6, 20.5, 21, 22.2, 25.2 (2×), 20.4, 13.9, 17.4 (2×), 21.1, 25.1, 17.2, 23.8, 29.7, 32.8, 14.3, 12.9, 17.8, 20.1, 16.8, 18.4, 42.1, 33.4, 28.8, 28.6 (2×), 43.4, 34.9 (2×), 41.7, 30.2 (2×), 41.1, 31, 39.8, 32.4, 21.8, 23.2, 32, 35.1, 26, 23.9%"
same,growth,runs of 2015,"inactive: 31.7, 38.3, 38.7 (2×), 37.8, 29.5, 36.2, 33, 30.6, 41.1, 35.1, 48, 47, 34.7 (4×), 51.2, 33.6 (2×), 29.4, 18.7, 22.6, 22.7, 28.5 (2×), 25.5, 35.5, 32.2, 30.1, 30.3, 27.9, 27.5 (2×), 30.2, 34.4 (2×), 34, 31.2, 33.1, 35.6, 29.1 (3×), 19.8, 26.7, 23.6, 22.3, 25.7, 25.9, 30.5, 24.5, 26.2, 27, 29.8, 40.3, 52.9, 21.4, 38.5, 33.3, 31.5, 44.2, 38, 45.3, 47.7, 32.6, 32.7 (2×), 33.8, 25.3, 25.6, 27.4, 35.7, 32.8, 31.8, 21.8, 30.7%"
same,growth,runs of 2016,"inactive: 35.5, 35.7, 40.4, 38.6, 30, 37, 18.4, 23.7, 25.9 (2×), 33.1, 23.4, 30.4, 22.7, 28.6 (2×), 19.9, 26.1, 17.7, 24.5 (2×), 32.1 (3×), 26.7, 31.7, 25.7, 31.3, 32.4, 26.6, 25.8, 34.7, 28.9, 32.8, 27.7, 37.7, 49.6, 41.1, 36.4, 41.2, 48.4, 54.5, 42.2, 52, 49, 41, 33.5, 30.1, 35.1, 30.5, 24.2, 29.9, 25.5, 32.2, 33, 33.2, 36.2, 33.8, 37.5, 54.4, 47.9, 37.8, 41.4, 44.4, 47.8, 29.1, 32.7, 26.5, 42.7, 45.4%"
same,growth,runs of 2017,"inactive: 42, 44.2, 36.5, 39.4, 40.1, 44.9, 39 (2×), 30.6, 36.9, 42.7, 48.8, 49.2, 40.4, 44.1, 52, 51.7, 24.7 (3×), 24.1, 22.6, 24.4 (2×), 22.8, 21.3, 28.4, 25.5, 30.9 (2×), 29.5, 33.6, 33.3, 35.5, 35.1, 40.7, 41 (2×), 30.2, 39.2, 36.2, 43.6, 36.4, 39.8, 51.2, 55.1, 29.1 (3×), 25.8, 26.1, 23.4, 24.9, 30.5, 29.7, 25.1, 26.6, 27.9, 34.7, 33, 35, 31.3, 33.4, 40, 38.6, 40.5, 47.2, 32.3, 42.4, 44.8, 23.7, 25.4 (2×), 52.6, 56.5, 45.1, 28.6, 29.2, 25.2%"
same,growth,runs of 2018,"inactive: 33.5, 35.9, 29.3, 31.3, 41, 38.6 (3×), 35.1, 38.9, 38, 39.7, 40.4, 45.5, 52, 51.1, 54, 57.1, 56.6, 51.3, 51.5, 27.7 (2×), 30.5, 25.7 (3×), 37.7, 38.5, 44.2, 42.4, 48.3, 47.4, 24.5, 25.3, 26.5, 27.1, 25.6, 28.1, 24.4, 27.5, 27, 29.5, 32.1, 29.2, 36.2, 38.8, 40.3, 43.3, 46.2, 38.4, 37.4, 28.4, 27.4, 15.4, 20.1%"
same,growth,runs of 2019,"inactive: 29.5 (2×), 20.3, 31.6, 32.9, 44.8, 37.5, 29.2, 33.6, 37.8, 36.7, 43.1, 35.2, 25.2, 27.6, 19.8, 18.9, 21.3, 23.2, 26.7, 25.8, 26.6, 27.4, 32.1, 42, 32.6, 36, 40, 18.6, 25.3, 17.9, 21.4, 19.1, 19.9, 24.5, 25.1, 27.1, 35.1, 32.5, 41, 26.9, 16.8, 21, 20.5%"
same,growth,runs of 2020,"inactive: 18.2, 17.8, 26.5, 31 (2×), 29.2, 28.4, 31.9, 32.2, 21, 18.6, 27.5, 23.4, 32.1, 30.3, 44.4, 40.9, 41.2, 34.2, 38.7, 42.6%"
